Data published in PubChem BioAssay AID488969 (Vanderbilt High Throughput Screening Facility, 2010).
The full ranking holds about 110,000 compounds; the median of “z-score” is about -0.1, and the highest 2% start at about 2. Some of the results follow. The source made the active and inactive calls.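 Rule for the calls: active = z-score in the third read window above 3 or below -3; inactive = the rest.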

These molecules were tested against Metabotropic glutamate receptor 8 (Rattus norvegicus) (UniProt P70579) (assay: rat mGluR8 modulators via GIRK flux, primary screen, cell-based, thallium flux, HTS (AID 488969)). Conditions: HEK293 rat mGluR8, GIRK (G protein-gated inwardly rectifying potassium channel) thallium flux, FluoZin2; at 10 µM; stronger effect = higher value; submaximal glutamate (EC20) added with thallium.
Chain of UniProt P70579 (P70579 whole entry, looked up): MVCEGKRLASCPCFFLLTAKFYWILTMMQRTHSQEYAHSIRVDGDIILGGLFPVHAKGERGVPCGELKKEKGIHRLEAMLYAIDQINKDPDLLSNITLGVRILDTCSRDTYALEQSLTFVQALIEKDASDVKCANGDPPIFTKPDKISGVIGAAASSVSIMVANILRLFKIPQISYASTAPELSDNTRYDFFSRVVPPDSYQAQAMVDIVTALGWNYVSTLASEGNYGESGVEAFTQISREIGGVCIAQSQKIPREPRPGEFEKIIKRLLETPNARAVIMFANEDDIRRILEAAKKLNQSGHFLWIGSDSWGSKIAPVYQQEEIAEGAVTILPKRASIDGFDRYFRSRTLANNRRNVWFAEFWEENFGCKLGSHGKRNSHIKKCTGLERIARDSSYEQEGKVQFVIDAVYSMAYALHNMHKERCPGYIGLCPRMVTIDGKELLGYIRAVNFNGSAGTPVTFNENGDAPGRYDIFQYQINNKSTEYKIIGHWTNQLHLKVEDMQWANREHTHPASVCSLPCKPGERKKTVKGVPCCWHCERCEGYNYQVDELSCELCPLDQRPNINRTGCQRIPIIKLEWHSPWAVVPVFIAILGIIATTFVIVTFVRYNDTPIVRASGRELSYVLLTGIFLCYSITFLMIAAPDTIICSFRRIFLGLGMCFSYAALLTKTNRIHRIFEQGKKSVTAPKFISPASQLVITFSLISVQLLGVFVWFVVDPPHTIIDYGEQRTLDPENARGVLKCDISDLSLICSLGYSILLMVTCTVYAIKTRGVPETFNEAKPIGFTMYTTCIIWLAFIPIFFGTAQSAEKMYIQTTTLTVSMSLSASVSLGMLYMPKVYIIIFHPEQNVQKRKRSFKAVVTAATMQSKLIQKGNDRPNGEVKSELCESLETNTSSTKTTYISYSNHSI

Compound	z-score
Fc1ccc(C(c2nnnn2C2CCCC2)N2CCc3ccccc32)cc1 (stereo unspecified)	-0.697
Cc1c(Nc2cc(=O)oc3ccccc23)c(=O)n(-c2ccccc2)n1C	-0.281
COC(=O)c1[nH]c2ccc(C)cc2c1NC(=O)CCN1CCN(Cc2ccc3c(c2)OCO3)CC1	active: 9.23
O=C(N/N=C/c1ccco1)c1cc([N+](=O)[O-])cc([N+](=O)[O-])c1	0.778
CC(=O)NC(CCS(C)(=O)=O)C(=O)Nc1ccccc1C (stereo unspecified)	0.309
O=C(CSc1nnc(CNC(=O)c2ccco2)o1)NC1CCCC1	0.658
COc1ccc(NC(=O)C2CSC3c4ccccc4C(=O)N23)cc1 (stereo unspecified)	0.3
Cc1cccc(N2CCN(C(=O)c3cc4c(=O)[nH]c5ccccc5c4n3C)CC2)c1C	-0.261
COCCCNC(=O)c1cccn2c(=O)c3cc4ccccc4cc3nc12	-0.323
CCn1nccc1C(=O)NC1=C(C#N)CCC1	1.07
Cc1cc(S(=O)(=O)N2CCCCCC2)c(Cl)cc1Cl	-0.00904
COc1ccc(CC(=O)Nc2ccc(S(=O)(=O)N(C)C)cc2)cc1OC	-0.142
Cc1c(NC(=O)CSc2nccn2C)c(=O)n(-c2ccccc2)n1C	-0.0895
O=C(NCC(c1cccs1)N1CCOCC1)c1ccc(Br)o1 (stereo unspecified)	0.127
O=C(c1cc2n(n1)C(C(F)(F)F)CC(c1ccc(Cl)cc1)N2)N1CCCC1 (stereo unspecified)	0.223
Cn1c(SCC(=O)N/N=C/C=C/c2ccccc2[N+](=O)[O-])nc2ccccc21	-0.165
CCOC(=O)c1c(NC(=O)Cn2nc(C(F)F)cc2C(F)F)sc(C)c1C	-0.217
CC1(C)NC(=O)N(CNc2cc(Cl)ccc2Cl)C1=O	0.105
O=C(c1ccc(COc2ccc(Br)cc2)o1)N1N=C(C(F)F)CC1(O)C(F)F (stereo unspecified)	-0.363
Cc1cc(/C=C(/C#N)c2nc3ccccc3[nH]2)c(C)n1-c1cccc([N+](=O)[O-])c1	-0.533
CCOCN(C(=O)Cn1c(COC)nc2ccccc21)c1c(C)cccc1CC	-0.0539
CCc1c(C)n([O-])c2c([n+]1=O)CCCCC2	-0.0701
O=C1C2=C(c3ccccc31)[N+](=O)C1CCCCC1N2[O-] (stereo unspecified)	-0.178

Compound	z-score
CNC(=S)N(Cc1ccc(OC)cc1)C1CC(=O)N(c2ccc(Cl)cc2)C1=O (stereo unspecified)	0.0914
CC(=O)c1cc(CC=C(C)C)c(O)c(CC=C(C)C)c1O	-0.162
COc1ccc(CCNC(=O)CSc2nnnn2Cc2ccc3c(c2)OCO3)cc1OC	0.0891
CCOC(=O)/C=C1\CC(=O)Nc2nonc2N1	0.969
CCCCC(=O)Nc1ccc(N2CCCC2)cc1	-0.0323
O=C(/C=C\Nc1ccccn1)c1ccc(Cl)cc1	-0.145
O=C(N/N=C/c1cccc(O)c1)c1ccc(COc2ccccc2Br)cc1	-0.253
COc1ccc(OC)c(NC(=O)CC(NCCC2=CCCCC2)C(=O)O)c1 (stereo unspecified)	-0.206
COc1ccnc(CSC(N)=Nc2ccc(F)cc2)c1	0.221
COc1ccc(-n2c(=O)cc(N3CCN(c4ccccc4)CC3)[nH]c2=O)cc1	1.04
Cc1onc(-c2ccccc2Cl)c1C(=O)Nc1ccc(S(=O)(=O)NCC2CCCO2)cc1 (stereo unspecified)	0.212
CC(C)(C)c1cc(CN2CCCCC2)cc(C(C)(C)C)c1O	0.603
CCN(CC)CCn1c(=S)[nH]c2cc(Cl)ccc2c1=O	1.41
O=c1[nH]c2ccc(Cl)cc2c(-c2ccccc2)c1SC(=S)N1CCOCC1	0.192
Nc1nnc(SCC(=O)OCc2ccc(F)cc2)s1	-0.473
CCCc1cc(=O)n2[nH]c(NCc3c(F)cccc3Cl)nc2n1	-2.49
Cc1ccc(N=CC=C2OC(C)(C)C(C)(C)O2)cc1	0.77
Cc1nnc(N2CCc3ccccc3C2)[nH]c1=O	0.569
CCC(C)c1ccccc1NC(=O)COC(=O)c1ccc2c(c1)S(=O)(=O)c1ccccc1C2=O (stereo unspecified)	2.17
O=C(CSc1nc2ccccc2s1)N1CCOCC1	0.742
O=C(Cc1ccccc1)Nc1ccc(-c2nnc(-c3ccco3)o2)cc1	-0.0131
CCn1c(=O)cc(OCC(=O)NC(C)c2ccc3c(c2)OCCO3)c2ccccc21 (stereo unspecified)	0.0843
O=C(NC1CCCCCC1)C1CCCN(S(=O)(=O)c2cccs2)C1 (stereo unspecified)	-0.353

Compound	z-score
Cc1ccc(NS(=O)(=O)c2cc(C(=O)N3CCOCC3)ccc2C)cc1C	0.258
O=C(c1ccc2ccccc2c1)N1CCN(c2ccccc2)CC1	-0.394
COC(=O)CSc1nnc(-c2ccncc2)o1	-0.262
N#Cc1nc(-c2cccc3ccccc23)oc1NCCN1CCCCC1	-0.288
Cc1ccc(C)c(-n2[nH]c3c4c(ccc3c2=O)C(=O)c2ccccc2C4=O)c1	0.0628
COc1ccccc1NS(=O)(=O)c1cc(C(=O)NCc2ccco2)ccc1C	-0.161
O=C(NCC1(N2CCOCC2)CCCCC1)c1ccc(Cl)c(S(=O)(=O)NCc2ccco2)c1	-0.0635
CC(=O)Cc1ccccc1OCC(=O)O	-0.248
O=C(CN1C(=O)NC2(CCCC2)C1=O)NCCC1=CCCCC1	-0.11
O=C1CSC(c2cn(-c3ccccc3)nc2-c2ccccc2)N1Cc1ccco1 (stereo unspecified)	-0.12
CC12CS(=O)(=O)CC1SC(=S)N2c1ccccn1 (stereo unspecified)	0.0183
CCOC(=O)C(NC(=O)c1ccccc1)(OCc1ccccc1)C(F)(F)F (stereo unspecified)	0.0862
CCOC(=O)Nc1ccc(S(=O)(=O)NCCCN2CCOCC2)cc1	1.02
CC(Sc1ccc2c(c1)OCCO2)C(=O)Nc1ccc2c(c1)OCO2 (stereo unspecified)	-0.385
CCC(C)(C)NC(=O)C(c1cccn1C)N(C(=O)Cn1nnc2ccccc21)c1ccccc1OC (stereo unspecified)	-0.207
CCOC(=O)C(C)c1nn(C)c(=O)c2ccccc12 (stereo unspecified)	0.567
Cc1cccc(OCC(O)Cn2c(NCCCOC(C)C)nc3c2c(=O)[nH]c(=O)n3C)c1 (stereo unspecified)	-0.0818
CCOc1ccc(C(=O)NCc2ccccc2)cc1Br	-0.29
O=C(Nc1ccc([N+](=O)[O-])cn1)c1ccc(Br)o1	-0.0194
COc1ccccc1C(=O)OCC(=O)Nc1ccc(OC(F)F)cc1	-0.0664
C=C(C)CSc1nc(N)c2c3c(sc2n1)CCC3	0.465
Cc1ccc(-c2cc(C(F)F)n3ncc(C(=O)NCc4ccco4)c3n2)cc1	-0.697
COc1cccc(-c2nnc(SCC(=O)OC(C)C)n2N)c1	-0.0143

Compound	z-score
CCOc1ccccc1N1CCN(S(=O)(=O)c2cccc3nsnc23)CC1	-0.0744
C/C(=N\NC(=O)c1cccs1)C(C)(C)C	0.209
CC(C)C(=O)Nc1ccnc(-c2cccnc2)n1	-0.0191
COc1cc(OC)cc(C(=O)Nc2ccc(S(=O)(=O)Nc3cc(C)on3)cc2)c1	-1.5
CCn1c2ccccc2c2cc(NC(=O)c3cccc(OC)c3OC)ccc21	-0.305
CCCn1cnc2c(c1=O)c1nc3ccccc3nc1n2Cc1ccccc1OC	0.281
COc1cc(C2NC(=O)NC(C)=C2C(=O)OC2CCCCC2)cc(Br)c1O (stereo unspecified)	-0.193
C#CCn1c(=NC(=O)c2ccc(S(=O)(=O)N3CCCc4ccccc43)cc2)sc2cc(S(N)(=O)=O)ccc21	-0.41
O=C1C(Cc2ccccc2)SC(=Nc2ccccc2)N1c1ccccc1 (stereo unspecified)	-0.208
O=C(CCCSc1nc2ccccc2[nH]1)Nc1nnc(-c2ccccc2)o1	-0.854
COC(=O)CCCCCc1ccc(C(C)=O)s1	-0.208
N#CCSc1nnc(-c2cnccn2)n1Cc1ccccc1	0.184
CC1(C)Cc2c(C#N)c(SCC(=O)c3ccccc3)nc(N3CCCC3)c2CO1	0.225
CCOc1cc(/C=N/NC(=O)c2cccnc2)ccc1OCC(=O)N1CCOCC1	-0.431
O=C1CCC(C(=O)OCC(=O)N2N=C3/C(=C/c4ccccc4)CCCC3C2c2ccccc2)N1 (stereo unspecified)	0.101
Nc1nc(-c2ccccc2)c(N=Nc2ccccc2Cl)s1	-0.215
COc1ccc(NC(=S)N2C3CCC2CC(NC(=O)NC24CC5CC(CC(C5)C2)C4)C3)c(OC)c1 (stereo unspecified)	-0.164
CCc1cccc2c(SCC(=O)NCC3CCCO3)nc(-c3ccc(F)cc3)nc12 (stereo unspecified)	-0.298
CC(C)(C)C1=Nn2c(nnc2C2CCCCC2)SC1	-0.452
CCc1ccc(C(=O)COC(=O)c2ccc(-c3nnc(-c4ccccc4)o3)cc2)cc1	-0.195
CCCNC(=O)COC(=O)c1ccc(Cl)c(S(=O)(=O)N2CCCC2)c1	-0.409
CCN(CC)c1ccc(/C=C(/C#N)C(=O)NCc2ccccc2)o1	-0.849
O=C(C1CCCCC1)N1CCCc2ccccc21	-0.789

Compound	z-score
CCOc1ccc2c(c1)c(C(C)=O)c(C)n2-c1ccccc1	-1.1
CN1CCN(c2nc(-c3ccc(Br)cc3)nnc2-c2ccccc2)CC1	-0.829
COCc1nnc(NC(=O)CCN2C(=O)c3ccccc3C2=O)s1	0.12
O=C(c1ccc(Oc2ccc(C(F)(F)F)cn2)cc1)N1CCN(c2ccccc2)CC1	-0.631
Cc1cc(C)n2nc(SCc3nnc(SCc4ccccc4C)s3)nc2n1	-0.364
CC(=O)Nc1ccc(NC(=O)c2sc3nc4c(c(-c5ccc(C)cc5)c3c2N)CCC4)cc1	-0.131
COC(=O)CNC(=O)C(NC(=O)c1ccc(Cl)cc1)C(C)C (stereo unspecified)	-0.965
Cc1ccc(CNC(=O)CCOc2ccc(C(C)(C)C)cc2)cc1	-0.228
COc1cccc(CNC(=O)N[C@@H](CC(C)C)C(=O)O)c1	-0.225
CCc1nnc(SCC(=O)NC2CCCCC2)nc1CC	-0.297
Fc1ccc2nc(N3CCCCC3)sc2c1	-0.15
COc1ccc(N=Nc2nc3ccc(Br)cc3n2C)cc1	-0.114
CCOC(=O)N1CCN(S(=O)(=O)c2ccc(OCC)cc2)CC1	-0.0455
CCOC(=O)c1cnc2ccc(Br)cc2c1NCCO	0.836
CSCCC(NS(=O)(=O)c1ccccc1F)C(=O)OCc1ccccc1Cl (stereo unspecified)	-1.46
Cc1ccc(Cl)cc1NC(=O)c1ccccc1OCC(=O)Nc1ccc(Cl)cc1	0.163
CCOC(=O)c1ccc[n+](CC(=O)c2ccccc2)c1	-0.134
COC(=O)C1=C(C)N(C)C(=O)NC1c1ccc(C)cc1 (stereo unspecified)	-0.0358
CCCCc1nnc(NC(=O)C(C)Sc2nc(C)cc(=O)[nH]2)s1 (stereo unspecified)	-0.337
